Test results: PubChem BioAssay AID1345082 (National Center for Advancing Translational Sciences (NCATS), 2018)
Screen size: about 94,000 compounds; about 4,000 (4.3%) were called active. The shares of active, inactive and inconclusive entries below differ from those in the screen. The call rests on the fitted dose curve; in most records, active means well fitted inhibition curve with a large enough effect; inconclusive means small, poorly fitted or top-dose-only effect; inactive means no such curve, though single readings can be large or run the other way. Potencies of inconclusive entries are doubtful fits and often do not repeat.

Assay: Cytotoxic Profiling in NIH 3T3 Cell Line of Diverse Libraries Using Quantitative High-Throughput Screening; further: nearly all actives have a fitted effect of over 55% in size
Conditions: NIH 3T3 viability, CellTiter-Glo ATP luminescence, 48-72 h; series mostly up to 96.7 µM
Method in brief: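 ATP-dependent luminescence (CellTiter-Glo) served as the viability signal for NIH 3T3 cells treated with compound for 48 or 72 hr at 37 °C.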
Potency means the concentration at half of the fitted maximal effect; tags describe the fitted curve by direction and shape.

Structure (SMILES)	Potency
O=C(Nc1cccnc1)c1nc2c(o1)CCN(Cc1ccc(F)cc1F)CC2	inconclusive: 25.1 µM [inhibitor, full curve]
CCN1c2cc(C(=O)Nc3ccc(-n4ccnc4)cc3)ccc2C(=O)N2CCCCCC21 (centres undefined)	active: 11.2 µM
O=C(c1ccc(F)cc1)N1CCC2(CC1)CN(Cc1ccccc1)CC2CO (centres undefined)	inconclusive: 50.1 µM [inhibitor, partial curve, poor fit]
Cc1cc(C)cc(-c2ccc(CN3CCCC(NC(=O)c4cccnc4)C3)cc2)c1 (centres undefined)	active: 20 µM
O=C(C(=O)N1CCC(c2cc(Cc3ccccc3)[nH]n2)CC1)c1cccnc1	inconclusive: 56.2 µM [inhibitor, partial curve, poor fit]
CC(C)CN1C[C@@H](C(=O)O)C[C@@H](C(=O)Nc2ccc(F)cc2)C1	inactive
CCc1nc2cc(N3CCC(C(=O)O)CC3)cnc2nc1CC	inconclusive: 50.1 µM [inhibitor, partial curve, poor fit]
O=C(C1CCCN(Cc2cccc(-c3ccc(F)cc3F)c2)C1)N1CCOCC1 (centres undefined)	inactive
O=C(NCC1CN(Cc2ccncc2)CC12CN(c1ccccc1)C2)Nc1ccccc1 (centres undefined)	inconclusive: 100 µM [inhibitor, partial curve]
COc1ccccc1Nc1ccnc(N2CCN(C(=O)c3ccc(C)cc3)CC2)n1	inconclusive: 50.1 µM [inhibitor, partial curve, poor fit]
O=C(O)CCNC(=O)N1CCCC(c2cccc(C(=O)O)c2)C1 (centres undefined)	inactive
CC(C)N1CCC(OCCCNC(=O)CN2CCCc3nc(C4CC4)ncc3C2=O)CC1	inactive
CCOC(=O)[C@H]1C[C@]2(CCCCN(C)C2=O)N(C(=O)Cc2ccc(F)cc2)[C@H]1c1ccco1	inconclusive: 70.8 µM [inhibitor, partial curve, poor fit]
Cc1ccc(NC(=O)Cn2ccn3nc(-c4ccc(F)cc4)c(CO)c3c2=O)cc1Cl	inconclusive: 39.8 µM [inhibitor, partial curve, poor fit]
COc1ccc(CN2CCc3oc(C)c(C(=O)N4CCCCCC4)c3C2)cc1	inconclusive: 79.4 µM [inhibitor, partial curve, poor fit]
O=C(c1ccncc1)N1CCC(Oc2cccc(F)c2)C1 (centres undefined)	inactive
COc1ccc(CNC(=O)C2CCN(c3nccc(Nc4ccccc4OC)n3)CC2)cc1	inconclusive: 35.5 µM [inhibitor, partial curve, poor fit]
COc1ccc(-c2cc(C(=O)NC3CC3)c3c(C4CCNCC4)noc3n2)cc1	inconclusive: 44.7 µM [inhibitor, partial curve, poor fit]
O=S(=O)(c1ccccc1)N1CCC(F)(c2nc(-c3ccncc3)no2)CC1	inconclusive: 50.1 µM [inhibitor, partial curve, poor fit]
CCC(C)NC(=O)c1ccc(-c2ccc(OC)nn2)cc1Cl (centres undefined)	inconclusive: 89.1 µM [inhibitor, partial curve, poor fit]
COc1cccc(CN2CCc3c(cc(C(=O)Nc4ccccc4OC)n3C)C2)c1	inconclusive: 44.7 µM [inhibitor, partial curve, poor fit]
CS(=O)(=O)N1CCC(Cc2ccc(C(=O)NCc3ccc(F)cc3)cc2)CC1	inconclusive: 14.1 µM [inhibitor, full curve, poor fit]

Structure (SMILES)	Potency
CCNC(=O)CCc1c(CC)nn(-c2ccc(F)cc2)c1Oc1ccccc1	inconclusive: 50.1 µM [inhibitor, partial curve, poor fit]
Cc1noc(C)c1[S+](=O)([O-])NCCNC(=O)c1ccc(-c2cccc(C(F)(F)F)c2)cc1	active: 35.5 µM
CCn1ncc(N2CCCC(CC(=O)Nc3ccccc3OC)C2)cc1=O (centres undefined)	inconclusive: 56.2 µM [inhibitor, partial curve, poor fit]
COc1cccc(-c2cc3c(=O)n(CCNC(=O)C4CCCCC4)ccn3n2)c1	inactive
O=C(c1ccccc1Cl)N1CCN(c2cc(-c3ccc(Cl)cc3)[nH]n2)CC1	inconclusive: 10 µM [inhibitor, full curve, poor fit]
O=[S+]([O-])(Nc1cc(-c2ccccn2)nn1-c1ccccc1)c1ccccc1	inconclusive: 56.2 µM [inhibitor, partial curve, poor fit]
CCn1nccc1C(=O)N1CC(c2nc(CCOCC3CC3)no2)C1	inconclusive: 39.8 µM [inhibitor, partial curve, poor fit]
C#CCOc1ccccc1CN1CCN(c2ncc(F)cn2)CC1	inactive
COc1cccc(CNC(=O)c2cc(-c3c(C)cccc3C)nc3c2cnn3C)c1	inconclusive: 70.8 µM [inhibitor, single point]
O=C1COc2ccc(OCc3cncs3)nc2CN1Cc1ccc(F)cc1	inconclusive: 44.7 µM [inhibitor, partial curve]
O=C(NC1CCN(c2cc(-c3cccs3)[nH]n2)C1)c1ccccn1 (centres undefined)	inactive
CCOc1ccccc1CN1CCC2(CCN(Cc3cncs3)CC2)Oc2ccccc21	inconclusive: 44.7 µM [inhibitor, partial curve, poor fit]
O=C(NC1CCCC1)c1ccc(-c2ccc(N3CCSCC3)nc2)cc1	inactive
O=C(NCc1ccccc1)N1CCC2(CC1)SCC(=O)N2c1ccc(Cl)cc1	inconclusive: 44.7 µM [inhibitor, partial curve, poor fit]
Cc1cc(Cl)ccc1S(=O)(=O)N1CCN(C2CCN(CCC(C)C)C2=O)CC1 (centres undefined)	inconclusive: 44.7 µM [inhibitor, partial curve, poor fit]
CCc1nc2c(c(-c3ccc(Cl)cc3)n1)CN(CC1CC1)CC2	inconclusive: 89.1 µM [inhibitor, partial curve, poor fit]
COc1ccc(NC(=O)c2c(C)nc3n2CCC(Nc2ccccc2)C3)cn1 (centres undefined)	inconclusive: 56.2 µM [inhibitor, partial curve, poor fit]
CSCc1ccc(C(=O)N2CCCC(O)(CN3CCCC3)C2)o1 (centres undefined)	inactive
CCN1C(=O)CCN(S(=O)(=O)Cc2ccccc2F)CC12CCOCC2	inactive
O=C(NCC1Cn2cccc2C(=O)N1Cc1ccccc1)c1ccsc1 (centres undefined)	inactive
Cc1ccc(CN2C(=O)COC[C@H]2C(=O)Nc2ccc(F)c(F)c2)cc1	inactive
COc1ccc(NC(=O)CN2C(=O)COc3ccc(C(=O)COc4ccccc4F)cc32)cc1	inconclusive: 44.7 µM [inhibitor, partial curve]

Structure (SMILES)	Potency
CNC(=O)c1ccc(CN2CCCC(CCc3ccccc3C(F)(F)F)C2)o1 (centres undefined)	inconclusive: 50.1 µM [inhibitor, partial curve, poor fit]
c1nc2c([nH]1)CN(Cc1ccc(OCCCN3CCOCC3)cc1)CC2	inactive
COc1ccc(C2=NOC3(CCN(Cc4ccccc4)C3)C2)cc1 (centres undefined)	inconclusive: 39.8 µM [inhibitor, partial curve, poor fit]
CC(C)CNC(=O)C1CCN(Cc2ccccc2-c2ccccc2F)CC1	inconclusive: 50.1 µM [inhibitor, partial curve, poor fit]
COc1ccc(CCNC(=O)c2c(C)noc2-c2ccc(C(C)(C)C)cc2)cc1OC	inconclusive: 50.1 µM [inhibitor, partial curve, poor fit]
O=C(Nc1ccc2c(N3CCCCC3)ncnc2c1)c1cc(F)cc(F)c1	inconclusive: 5.01 µM [inhibitor, full curve, poor fit]
COc1ccccc1CC(=O)N1CCC2(CC1)NC(=O)N(c1ccccc1)N2	inconclusive: 20 µM [inhibitor, full curve]
O=C1Nc2ccccc2CN(Cc2ccc(F)cc2)C12CCNCC2	inconclusive: 28.2 µM [inhibitor, full curve, poor fit]
CCn1nccc1C(=O)N1CCCCC1c1noc(COc2ccc(C)cc2)n1 (centres undefined)	inconclusive: 50.1 µM [inhibitor, partial curve, poor fit]
OCc1cccc(-c2cc(-c3ccncc3)c3cncn3c2)c1	active: 12.6 µM
Cc1cnc(C2CCC2)n1CC1CCN(C(=O)COCc2ccccc2)C1 (centres undefined)	inactive
CCOc1ccccc1NC(=O)Cn1c(=O)c(-c2noc(C)n2)c2n(c1=O)CCCC2	inactive
CN(C)c1ccc(CN2CC(Oc3ccc4c(c3)OCO4)C2)cc1	inconclusive: 79.4 µM [inhibitor, single point]
O=C(NCc1cccc(C(F)(F)F)c1)C1CCN(Cc2ccccc2-c2cccnc2)CC1	inconclusive: 50.1 µM [inhibitor, partial curve, poor fit]
O=C(c1ccc(Cl)cc1)N1CC2(CCCN2Cc2cccnc2)Cc2ccccc21 (centres undefined)	inconclusive: 50.1 µM [inhibitor, partial curve, poor fit]
COc1ccc(CC(=O)N(C)C2CCc3nnc(C)n3CC2)cc1Cl (centres undefined)	inactive
O=C(NCCCc1ccccc1)c1ccc2nc(-c3cccnc3Cl)oc2c1	active: 44.7 µM
O=C(c1nnc(COc2ccc3c(c2)OCO3)n1-c1ccccc1)N1CCC[C@@H]1c1nc2ccccc2[nH]1	inconclusive: 70.8 µM [inhibitor, single point]
COCc1ccc2c(c1)c(OC(C)(C)C(=O)NC1CCOCC1)nn2Cc1cccnc1	inconclusive: 112 µM [inhibitor, single point]
Cc1nc(-c2cnccn2)n(CC(=O)Nc2ccccc2)c(=O)c1C	inconclusive: 79.4 µM [inhibitor, partial curve, poor fit]
